1 molecule from publication PMC9389462, “Small molecule MMRi62 targets MDM4 for degradation and induces leukemic cell apoptosis regardless of p53 status” (Frontiers in Oncology, 2022) can be followed below.

The test deals with T1, FLAG-MDM4 (UniProt O15151 1-490).
T1 construct: MDM4; The plasmid is named HA-FLAG-MDM4, the protein in the pull-down FLAG-MDM4; also called HA-FLAG-MDM4
T1 sequence (looked up): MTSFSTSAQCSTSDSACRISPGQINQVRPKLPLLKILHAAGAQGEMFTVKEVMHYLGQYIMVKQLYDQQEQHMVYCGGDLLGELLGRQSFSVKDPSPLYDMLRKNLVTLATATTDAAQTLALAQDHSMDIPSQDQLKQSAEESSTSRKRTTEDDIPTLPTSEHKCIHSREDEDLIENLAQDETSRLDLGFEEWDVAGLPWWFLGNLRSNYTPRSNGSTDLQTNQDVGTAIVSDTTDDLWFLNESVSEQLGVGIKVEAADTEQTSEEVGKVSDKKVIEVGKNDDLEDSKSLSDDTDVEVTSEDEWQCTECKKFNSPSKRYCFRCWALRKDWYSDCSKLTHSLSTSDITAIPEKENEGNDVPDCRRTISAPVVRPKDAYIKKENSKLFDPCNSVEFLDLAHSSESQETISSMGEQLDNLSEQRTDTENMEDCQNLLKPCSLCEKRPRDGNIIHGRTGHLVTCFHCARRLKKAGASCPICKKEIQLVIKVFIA
Put plainly: pull-down; FLAG-MDM4 and HA-MDM2B proteins incubated with DMSO or 5 and 10 uM MMRi62 or MMRi67; FLAG-MDM4 pulled down by anti-FLAG beads, multiple washes; bound MDM2B detected by WB with anti-HA. The conditions noted are these: both partners purified.

B1: HA-MDM2B (natural protein)
chain: not shown
notes: also called splice isoform MDM2B
Consider B1, for which the binding result is given as “binds”.
